# Experimental data: PubChem BioAssay AID720708 (National Center for Advancing Translational Sciences (NCATS), 2013)
# In all, about 360,000 compounds went through this assay and about 660 (0.18%) were called active. The shares of active, inactive and inconclusive entries below differ from those in the screen. The call rests on the fitted dose curve; in most records, active means well fitted inhibition curve with a large enough effect; inconclusive means small, poorly fitted or top-dose-only effect; inactive means no such curve, though single readings can be large or run the other way. No potency is given beside an inconclusive call; the fits are too rough.
# Molecular target: Rap guanine nucleotide exchange factor 4 (Homo sapiens) (UniProt Q8WZA2)
# Experiment: qHTS for Antagonist of cAMP-regulated guanine nucleotide exchange factor 2 (EPAC2): primary screen; further: nearly all actives have a fitted effect of over 45% in size
# Conditions: EPAC2 GEF exchange of Rap1B-BODIPY-GDP, fluorescence; activity, negative = inhibition: at 114 µM (top of the series) unless noted
# Description: In multi-cellular eukaryotic organisms, the effects of cAMP are transduced by two ubiquitously-expressed intracellular cAMP receptors, the classic protein kinase A/cAMP-dependent protein kinase (PKA/cAPK) and the more recently discovered exchange protein directly activated by cAMP/cAMP-regulated guanine nucleotide exchange factor (EPAC/cAMP-GEF). Both PKA and EPAC are ubiquitously expressed in all tissues, and an increase in intracellular cAMP levels will lead to the activation of both PKA and EPAC. Therefore, careful dissections of the individual role and relative contribution of EPAC and PKA within the overall cAMP signaling in various model systems are critical for further elucidating the mechanism of cAMP signaling. To date no EPAC-specific antagonists and agonist, as well as isoform-specific agonists have been reported, and developing EPAC-specific pharmacological probes to determine the physiological functions that EPAC play in the overall cAMP-mediated signaling remains a major challenge within the research field. Furthermore, identified regulators of EPAC may lead to new mechanism-based therapeutic strategies specifically targeting the EPAC / cAMP-signaling components as EPAC has been implicated to play important roles in major human pathological conditions such as diabetes, heart disease, and cancer.
# This qHTS will be used to screen the Molecular Libraries Small Molecule Repository (MLSMR) as a concentration-titration series using the NCGC unique quantitative screening (qHTS) platform to find inhibitors for EPAC2. In addition, this assay will also be used as a counterscreen for the EPAC1 qHTS. This fluorescent based assay is developed and validated for EPAC2 that measures exchange using EPAC effector Rap1 complex with BODIPY-GDP, a GDP analog with a tethered fluorophores. Inhibitors are identified by monitoring the change in fluorescence signal as the exchanged free BODIPY-GDP has a reduced fluorescence compared to Rap1-bound BODIPY-GDP. Decrease in signal (inhibition) is the desired outcome for the EPAC2 antagonist while no activity in this assay is desired for the EPAC1 antagonist counterscreen.
# NIH Chemical Genomics Center [NCGC]
# NIH Molecular Libraries Probe Centers Network [MLPCN]
# Assay Submitter (PI): Xiaodong Cheng, The University of Texas, Medical Branch
# Briefly, three uL of reagents (100 nM EPAC2, 250 nM RAP1B-BODIPY-GDP, 50 uM GDP) were dispensed into a 1536-well Greiner black solid-bottom medium binding assay plate. Controls and test compounds (23 nL) were transferred to the plate via a Kalypsys pin tool equipped with a 1536-pin array. The plates were centrifuged at 1,000 rpm for 15 seconds followed by 5 minute incubation at room temperature. The assay plates were read at 5 minute intervals for 30 minutes in the ViewLux plate reader using 480nm excitation and 540nm emission filters. The results were normalized to the agonist positive control ATA and DMSO.
# On the % scale 0 is the no-effect control and ±100 the full control effect; potency means the concentration at half of the fitted maximal effect; tags describe the fitted curve by direction and shape.
# Chain of UniProt Q8WZA2 (Q8WZA2 whole entry, looked up): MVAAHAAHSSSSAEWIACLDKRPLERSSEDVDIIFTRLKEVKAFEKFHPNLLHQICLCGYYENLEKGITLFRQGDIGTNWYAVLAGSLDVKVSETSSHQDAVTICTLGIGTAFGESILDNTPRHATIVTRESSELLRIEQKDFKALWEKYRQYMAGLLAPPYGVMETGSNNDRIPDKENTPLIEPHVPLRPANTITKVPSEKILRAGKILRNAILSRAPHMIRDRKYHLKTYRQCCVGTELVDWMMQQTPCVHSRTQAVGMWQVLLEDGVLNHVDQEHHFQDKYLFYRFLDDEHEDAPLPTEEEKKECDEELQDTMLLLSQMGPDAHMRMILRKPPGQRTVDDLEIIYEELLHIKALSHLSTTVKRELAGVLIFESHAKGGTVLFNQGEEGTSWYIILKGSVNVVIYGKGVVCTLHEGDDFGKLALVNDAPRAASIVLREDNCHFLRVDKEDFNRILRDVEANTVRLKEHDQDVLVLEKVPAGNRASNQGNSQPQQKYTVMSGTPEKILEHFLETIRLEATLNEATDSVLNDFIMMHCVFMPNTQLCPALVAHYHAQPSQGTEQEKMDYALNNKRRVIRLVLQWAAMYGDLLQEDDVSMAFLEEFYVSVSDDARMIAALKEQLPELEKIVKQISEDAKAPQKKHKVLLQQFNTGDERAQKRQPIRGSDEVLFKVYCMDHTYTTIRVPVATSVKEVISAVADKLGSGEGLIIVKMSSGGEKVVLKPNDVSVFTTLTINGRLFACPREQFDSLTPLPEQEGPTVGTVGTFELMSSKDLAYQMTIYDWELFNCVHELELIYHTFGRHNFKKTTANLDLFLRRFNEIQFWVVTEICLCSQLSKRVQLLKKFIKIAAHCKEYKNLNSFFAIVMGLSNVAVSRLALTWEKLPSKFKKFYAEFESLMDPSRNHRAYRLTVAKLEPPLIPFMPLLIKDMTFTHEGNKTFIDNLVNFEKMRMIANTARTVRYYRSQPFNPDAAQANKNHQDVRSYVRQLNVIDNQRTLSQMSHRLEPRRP
Compound,Potency,"activity, negative = inhibition"
CC(C(=O)Nc1ccccc1-c1ccccc1)N1CCN(Cc2ccccc2)CC1 (stereo not given),inactive,
C=CCOc1ccc(/C=C2\SC(=S)N(C(C(=O)O)c3ccccc3)C2=O)cc1 (stereo not given),"inconclusive [inhibitor, partial curve]",
Cc1onc(-c2c(F)cccc2Cl)c1C(=O)OCc1nnc(-c2ccccc2)o1,"inconclusive [inhibitor, partial curve]",
COc1cc(NC(=O)c2ccccc2NS(=O)(=O)c2ccc(Cl)s2)cc(OC)c1,"inconclusive [inhibitor, partial curve]",
COC(=O)C(C)Oc1cc(OC(C)C(=O)OC)c2c(-c3ccccc3)cc(=O)oc2c1 (stereo not given),"inconclusive [inhibitor, single point]",
COc1ccc(NC(=O)c2sc(=O)n(Cc3ccccc3C#N)c2C)cc1OC,inactive,
COc1ccc(-c2nnc3ccc(SCC(=O)N4CCOCC4)nn23)cc1,"inconclusive [inhibitor, single point]",
Cc1ccc(C(=O)NNC(=O)c2n[nH]c(=O)c3ccccc23)cc1C,inactive,
O=C(Cn1cncn1)N/N=C/c1cccnc1,inactive,
COC(=O)c1sc(C(F)(F)F)c(-c2ccccc2)c1S(=O)(=O)NC(C)(C)C,"inconclusive [inhibitor, partial curve]",
CSc1ccc(C(=O)C2CCCN(C(=O)c3nn(C)c(=O)c4ccccc34)C2)cc1 (stereo not given),"inconclusive [inhibitor, single point]",
O=C(c1ccccc1)C(c1ccccc1)c1ccccc1,"inconclusive [inhibitor, partial curve]",
COC(=O)C1=CN(c2ccc(F)cc2)C=C(C(=O)OC)C1c1ccc(O)cc1,"inconclusive [inhibitor, single point]",
COc1c(/C=C2\SC(=Nc3ccccc3Cl)NC2=O)cccc1[N+](=O)[O-],"inconclusive [inhibitor, partial curve]",
CC1=NOC(=O)/C1=C\c1ccc(-c2ccccc2Br)o1,"inconclusive [inhibitor, partial curve, poor fit]",
CC(C)(C)Cc1c(-c2ccccc2)nc2ccc(Cl)cn12,"inconclusive [inhibitor, full curve]",
CC(=O)Nc1cccc(Oc2ncnc3scc(-c4ccc(C)cc4)c23)c1,"inconclusive [inhibitor, full curve, poor fit]",
Cc1cccc(N/C=C(\[N+](=O)[O-])S(=O)(=O)c2ccccc2)c1C,,inconclusive: -15.8% [inhibitor]
Cn1c(N)c(C(=O)COC(=O)CCOc2ccc(C(C)(C)C)cc2)c(=O)n(C)c1=O,"inconclusive [inhibitor, partial curve]",
C=CCn1c(NS(=O)(=O)c2ccccc2)c(S(=O)(=O)c2ccc(C)cc2)c2nc3ccccc3nc21,"inconclusive [inhibitor, single point]",
COc1ccccc1C(=O)Nc1c(C)cc(Br)cc1C,"inconclusive [inhibitor, partial curve]",
CC1=CC(C)(C(Cl)(Cl)Cl)C(C)=CC1=NO (stereo not given),"inconclusive [inhibitor, partial curve]",

Compound,Potency,"activity, negative = inhibition"
C(=N\NC1=Nc2cccc3cccc1c23)/c1cccnc1,inactive,
CN(Cc1ccon1)Cc1cn(C)nc1-c1cccc(Cl)c1,"inconclusive [inhibitor, partial curve]",
CC(=O)Nc1ccc(NC(=O)C2(C)Cc3c(-c4cccc(C(F)(F)F)c4)ccnc3O2)cc1 (stereo not given),"inconclusive [inhibitor, partial curve]",
CSc1nnnn1-c1c(C)cc(C)cc1C,"inconclusive [inhibitor, full curve, poor fit]",
CCN(CC)CCN(C(=O)c1ccccc1OC)c1nc2ccc(F)cc2s1,"inconclusive [inhibitor, partial curve]",
O=C1S/C(=C\c2ccc(O)c([N+](=O)[O-])c2)C(=O)N1c1ccccc1Cl,"inconclusive [inhibitor, partial curve, poor fit]",
O=P(c1ccccc1)(c1ccccc1)c1ccccc1C(Br)Br,"inconclusive [inhibitor, full curve]",
CCCCCCCCCCCCN1[C@@H](CC(=O)O)c2cc(F)ccc2S1(=O)=O,"inconclusive [inhibitor, partial curve]",
CCOC(=O)C1=C(c2ccccc2)N=c2s/c(=C\c3cc(OC)c(OC)c(OC)c3)c(=O)n2C1c1cccs1 (stereo not given),inactive,
CCOc1ccc(/C=C2/SC(=S)N(C(C(=O)O)c3ccccc3)C2=O)cc1OCC (stereo not given),"inconclusive [inhibitor, partial curve]",
COC(=O)C1=C(C)N(Cc2ccccc2)C(=S)N[C@H]1c1ccc(Br)cc1,"inconclusive [inhibitor, partial curve, poor fit]",
COc1cccc(S(=O)(=O)Nc2ccc3c(c2)C(=O)N(C)C[C@H](OC)[C@H](C)CN[C@@H](C)CO3)c1,inactive,
Cc1onc(-c2ccccc2Cl)c1C(=O)N1CCN(c2ncccn2)CC1,"inconclusive [inhibitor, single point]",
COc1cccc(-c2ccc(C#N)c(OC(=O)c3ccc(Cl)cc3)n2)c1,inactive,
Cc1ccccc1Cn1c(C)nc2ccc([N+](=O)[O-])cc2c1=O,inactive,
COc1ccc(S(=O)(=O)Nc2ccc3c(c2)CCC3)cc1,"inconclusive [inhibitor, partial curve]",
CSc1nc(N2CCOCC2)c2c3c(sc2n1)CCCC3,active: 17.8 µM,
CC1(Cc2ccccc2C#N)C(=O)Nc2ccc(-c3ccccc3)cc21 (stereo not given),"inconclusive [inhibitor, partial curve]",
Cn1cc(-c2cnc3c(NC=O)cc(-c4cccc(C(F)(F)F)c4)cn23)cn1,"inconclusive [inhibitor, partial curve]",
CCCOc1ccc(-c2nnc(N)s2)cc1,inactive,
Oc1c(Br)cc(Br)cc1CNc1cccc2cccnc12,active: 11.2 µM,
Cc1ccccc1CN(C)CC(=O)Nc1ccccc1Oc1ccccc1,"inconclusive [inhibitor, full curve]",

Compound,Potency,"activity, negative = inhibition"
COc1cccc(C2Nc3ccccc3NC3=C2C(=O)CC(C)(C)C3)c1OC (stereo not given),inactive,
CCCCCc1c2c(cc(O)c1C(=O)O)OC(=O)c1cc(C(=O)CCCC)c(OC)cc1O2,"inconclusive [inhibitor, full curve]",
COC(=O)C1CCN(C2CN(Cc3ccc(C)cc3)S(=O)(=O)C2)CC1 (stereo not given),"inconclusive [inhibitor, full curve, poor fit]",
CN(Cc1ccccc1F)c1cc2c(c3c1ccn3C)C1CCC2O1 (stereo not given),"inconclusive [inhibitor, single point]",
O=C(Cn1c(=O)oc2cc(S(=O)(=O)N3CCCC3)ccc21)N1CCN(c2ccccc2F)CC1,inactive,
CCCOc1ccc2ccccc2c1/C=C1\SC(=O)NC1=O,"inconclusive [inhibitor, partial curve]",
CC(C)(C)Sc1ccc(/C=N/O)cc1[N+](=O)[O-],"inconclusive [inhibitor, partial curve]",
O=C(c1ccco1)N1N=C(c2ccccc2O)CC1c1cccs1 (stereo not given),"inconclusive [inhibitor, full curve, poor fit]",
O=C(O)c1ccccc1N/N=C/c1cc(Br)cc(Br)c1O,"inconclusive [inhibitor, partial curve]",
CC1CCCCC1NC(=S)NC(=O)c1cccs1 (stereo not given),"inconclusive [inhibitor, partial curve]",
COC1=C(Br)C(=O)c2nc(C)ccc2C1=O,"inconclusive [inhibitor, partial curve]",
Cc1ccnc(NCc2ccc(Cl)cc2)c1,"inconclusive [inhibitor, partial curve]",
O=C(COc1cccc2cccnc12)N/N=C/c1cccn1-c1ccc(F)cc1,"inconclusive [inhibitor, full curve, poor fit]",
CCOC(=O)c1ccccc1NC(=O)c1ccc2nc[nH]c2c1,"inconclusive [inhibitor, single point]",
COc1ccc(NC(=O)NC(=O)c2cc(OCC(F)(F)F)ccc2OCC(F)(F)F)cc1,"inconclusive [inhibitor, full curve, poor fit]",
Cc1ccc(NS(=O)(=O)c2ccc3c(c2)NC(=O)CO3)cc1Cl,"inconclusive [inhibitor, partial curve]",
CC(C)C(=O)Nc1ccc(NC(=O)c2cccs2)cn1,inactive,
C[C@@H]1CN([C@@H](C)CO)C(=O)Cc2cc(NC(=O)C3CCCCC3)ccc2O[C@H]1CN(C)S(=O)(=O)c1ccccc1,"inconclusive [inhibitor, single point]",
CCCCC[C@@H](C)N1C[C@@H](COCc2ccccc2)Oc2cc(N3CC[C@@H](O)C3)ccc2S1(=O)=O,"inconclusive [inhibitor, partial curve]",
CN(C)C(=O)CCc1ccc2c3c([nH]c2c1)[C@]1(C)[C@@H](C(=O)N2CCCCC2)C[C@H](CC(=O)NCCc2ccccn2)C(=O)N1CC3,"inconclusive [inhibitor, partial curve]",
O=C1NN(c2ccccc2)C(=O)/C1=C\c1ccccc1OCC(=O)N1CCOCC1,inactive,
